Measured values from ChEMBL document CHEMBL5308541, “MAIP: An Open-Source Tool to Enrich High-Throughput Screening Output and Identify Novel, Druglike Molecules with Antimalarial Activity” (ACS Med Chem Lett, 2023).
The campaign covered roughly 150,000 compounds. About 540 (0.36%) showed an effect of 50% or more. This is one part of the list.

System: Plasmodium falciparum
Experiment: Primary screen in NF54 nanoGlo assay, in single point, at 2uM, 72h; a lower Z score goes with more inhibition
Type: functional, Erythrocyte
Details: timepoint 72 hour

| Structure (SMILES) | % Inhibition [%] | Z score |
| --- | --- | --- |
| Cn1cc(-c2ccnc(N[C@H](CO)Cc3ccc(Cl)cc3)n2)cn1 | 0 | -0.02 |
| c1cnc2[nH]cc(CCNc3ncnc4c3CCC4)c2c1 | -2 | 0.43 |
| COc1ccc(-c2nnc(CN[C@H](c3ccc(C4CCCCC4)cc3)C(C)C)o2)cc1 | -2 | 0.37 |
| C[C@@H]1CN(c2ccc(NCc3c[nH]nc3-c3ccc(C(F)(F)F)cc3)cc2)C[C@H](C)O1 | -15 | 3.14 |
| Cc1n[nH]c(C)c1CN1CCc2nc(N)nc(NC3CCCC3)c2CC1 | 9 | -1.67 |
| N#Cc1ccc(OC2CCC(Nc3ncnc(N)c3Cl)CC2)nc1 (stereo unspecified) | -9 | 1.6 |
| CCc1cnc(N2CCC(N3CCC[C@H](C(=O)N4CCOCC4)C3)CC2)nc1 | 11 | -2.28 |
| CN(Cc1ccc2nccnc2c1)C1CCN(c2ccc(C(=O)N3CCC[C@H](CO)C3)cc2)CC1 | -8 | 1.33 |
| c1cc(CCN2CCN(C3CCC4(CCNCC4)CC3)CC2)ccn1 | -2 | 0.41 |
| CC(C)CN1CCCN(Cc2cccc3[nH]ccc23)CCNC(=O)CC12CCCCC2 | -8 | 1.32 |
| Cc1cc(C(=O)NCC2CCN(C(=O)CN3CCCN(C)CC3)CC2)cc(C)n1 | 7 | -1.31 |
| CCOc1cc(O)ccc1NC(=O)[C@@](O)(CC)c1cccc(Cl)c1 | -9 | 2.03 |
| CN(C)Cc1cccc(CNc2ncnc3c2CCNC3)c1 | -6 | 1.35 |
| COc1ccc(-c2cc(-c3ccccc3O)n([C@@H]3C(=O)Nc4ccc(Br)cc43)n2)cc1 | 28 | -4.9 |
| CN1CCC[C@H](Nc2nc(NC3CC3)nc3c2CCN(CCN)CC3)C1 | -7 | 1.31 |
| Cc1[nH]c(-c2ccccc2)nc1CN(C)CCN1CCCCC1 | -9 | 1.56 |
| O=C(NC[C@H](c1ccccc1)c1c[nH]c2ccccc12)C1CCN(c2ccc3nnnn3n2)CC1 | 11 | -1.73 |
| FC(F)(F)c1cc(N2CCC[C@H]2c2nc3ccccc3[nH]2)nc(-c2ccncc2)n1 | -4 | 0.67 |
| Cc1ccc(CS(=O)(=O)N[C@H]2CCCS(=O)(=O)C2)c(F)c1 | -6 | 1.23 |
| CC1CC(Nc2cc(N3CCOCC3)ncn2)CCN1Cc1ccccc1 (stereo unspecified) | -3 | 0.5 |
| OC(CNCC(c1ccccc1Cl)c1c[nH]c2ccccc12)COCc1ccc2c(c1)OCO2 (stereo unspecified) | 0 | -0.04 |
| Cn1nncc1C(=O)Nc1ccc(-c2nc3cc(F)c(F)cc3[nH]2)cc1 | 4 | -0.86 |
| O=C([C@@H](F)CN(Cc1ccccc1)Cc1ccccc1)N1CCn2cnnc2C1 | -5 | 0.79 |
